# Source: article PMC6919601, “Identification of Plasmodium dipeptidyl aminopeptidase allosteric inhibitors by high throughput screening” (PLoS ONE, 2019)
# Among all 110,000 compounds or so, about 230 (0.21%) showed an effect of 50% or more. This is one part of the list.
# Target: DPAP1 (Plasmodium falciparum, UniProt Q8IIJ9)
# Test: primary screen, percent inhibition; read by cleavage of a fluorogenic dipeptide substrate; higher = more effect of the substance
# Parameters: species or system P. falciparum D10 trophozoite lysates; single well
# 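Note: 30 min substrate incubation versus DMSO and 10 µM JCP410 controls.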
# Chain of DPAP1 (Q8IIJ9 whole entry, looked up): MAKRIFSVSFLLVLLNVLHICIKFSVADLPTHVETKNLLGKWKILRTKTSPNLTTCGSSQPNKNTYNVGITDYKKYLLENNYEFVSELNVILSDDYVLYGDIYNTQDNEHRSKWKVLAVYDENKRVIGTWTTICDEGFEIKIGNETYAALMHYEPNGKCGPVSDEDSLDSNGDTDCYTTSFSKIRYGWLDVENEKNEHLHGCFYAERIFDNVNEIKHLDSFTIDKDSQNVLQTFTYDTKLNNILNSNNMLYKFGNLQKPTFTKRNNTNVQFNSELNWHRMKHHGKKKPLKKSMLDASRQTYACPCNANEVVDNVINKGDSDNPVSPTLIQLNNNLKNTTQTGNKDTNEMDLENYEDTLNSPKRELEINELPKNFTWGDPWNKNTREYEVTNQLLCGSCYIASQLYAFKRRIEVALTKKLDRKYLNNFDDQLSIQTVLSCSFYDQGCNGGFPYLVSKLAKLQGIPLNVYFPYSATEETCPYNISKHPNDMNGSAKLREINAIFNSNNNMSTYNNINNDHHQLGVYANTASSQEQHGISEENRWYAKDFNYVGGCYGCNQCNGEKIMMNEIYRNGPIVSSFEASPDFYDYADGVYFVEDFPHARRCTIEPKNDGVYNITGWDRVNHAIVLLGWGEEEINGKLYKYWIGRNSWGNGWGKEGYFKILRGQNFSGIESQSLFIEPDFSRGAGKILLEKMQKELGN
row,SMILES,% Inhibition @ 10 uM [%]
1,O=C(COCc1cc(-c2cccs2)on1)NCc1ccccc1,-4.67
2,Cc1cc(C)n2nc(CNS(=O)(=O)c3ccc(Br)s3)nc2n1,-9.71
3,O=C(NCc1ccco1)C1CCCN(S(=O)(=O)c2ccc(-c3ccc(O)nn3)s2)C1 (stereo not drawn),-0.887
4,CCC(C)NC(=O)Cn1ncn2cccc2c1=O (stereo not drawn),-7.17
5,O=C(C1CCCN(c2nn3cc(-c4ccc(F)cc4)nc3s2)C1)N1CCOCC1 (stereo not drawn),3.7
6,CC(=O)c1ccccc1OCC(O)Cn1ccnc1 (stereo not drawn),-1.11
7,COC(=O)c1ccc(NC(=O)CCC(=O)O)cc1,0.774
8,C/C(Cl)=C\CSc1nc2c(c(=O)[nH]c(=O)n2C)n1Cc1ccccc1,-2.78
9,COc1ccccc1NC(=O)c1cc(C)cc(C)c1,-2.32
10,Cc1[nH]c2ccccc2c1C(=O)/C=C/c1ccco1,3
11,Cc1cc(C(=O)N2CC(C)CC(C)C2)n[nH]1 (stereo not drawn),-1.3
12,COc1ccc(-c2noc(CN(C(=O)c3ccc(C)cc3Cl)C(C)C)n2)cc1,-4.62
13,COc1cccc(C(=O)Nc2nnc(-c3ccccc3)s2)c1,1.12
14,Cc1nc2ccn(Cc3ccco3)c(=O)c2cc1C(=O)NC1CCN(Cc2ccccc2)CC1,0.586
15,Fc1ccc(-c2noc3ncnc(N4CCCN(Cc5ccccc5Cl)C4)c23)cc1,1.92
16,COC(=O)[C@@]1(C)CC[C@]2(C)CC[C@]3(C)C(=CC(=O)C4[C@@]5(C)Cc6c([nH]c7ccccc67)C(C)(C)C5CC[C@]43C)C2C1 (stereo partly drawn),4.26
17,O=C(Nc1ccc(C(=O)c2ccccc2)cc1)c1cccnc1,2.5
18,Cc1ccc(N2C(=O)CC(N(C(=O)CSc3ncccn3)C3CCCCC3)C2=O)cc1 (stereo not drawn),3.27
19,CCN1C(=O)NC(=O)/C(=C\c2cn(CCOc3ccccc3)c3ccccc23)C1=O,-4.93
20,CC(=O)N1CCC2(CC1)OC(=O)C(C)=C2C(=O)NCCCOC(C)C,1.6
21,CC(C)(C)C1C/C(=C/c2ccccn2)C(=O)/C(=C\c2ccccn2)C1 (stereo not drawn),-1.32
22,CC(=O)CCS(=O)(=O)c1ccc(Cl)cc1,-7.85

row,SMILES,% Inhibition @ 10 uM [%]
1,O=c1[nH]c2sc3c(c2c(=O)n1-c1ccc(Cl)c(Cl)c1)CCC3,-2.48
2,COc1ccc(CNC(=O)c2cnn3c2NC(c2ccc(F)cc2)CC3C(F)(F)F)cc1 (stereo not drawn),-4.39
3,Cn1cccc1Cc1nnc(SCC(=O)NCc2ccco2)n1CCc1ccccc1,-5.76
4,Cc1ccc(-n2nc(C)c3c(C(=O)NCc4ccc(CN5CCOCC5)o4)cc(C)nc32)cc1,-2.84
5,COc1ccc(-c2cc(/N=C(/NC3CCCCC3)SC)[nH]n2)c(OC)c1,-5.92
6,O=C(Nc1cccc2ncccc12)c1sc2ccccc2c1Cl,9.37
7,CC(Oc1ccccc1)C(=O)NC1CCCC1 (stereo not drawn),1.02
8,O=C(NCCC1=CCCCC1)/C(=C/c1cccs1)NC(=O)c1ccccc1,-2.46
9,COc1ccc(CNC(=O)Cn2cc3c(n2)CCCC3)cc1,0.137
10,Cc1ccc(OCC(=O)NCCC2=CCCCC2)c(Br)c1,-2.67
11,COCCNC(=O)Cc1ccccc1,-4.58
12,O=c1c(NCc2ccco2)c(-c2ccc(Cl)cc2)c1=O,3.47
13,CN1CCN(C(=O)c2ccco2)CC1,-3.99
14,O=C(CCCOc1ccc(Cl)cc1Cl)NC1CCCCC1,-3.94
15,COc1ccccc1C(=O)NC(C(C)C)C(C)C,4.31
16,COc1cc(/C=C2\CCc3ccccc3C2=O)ccc1OC(C)C,-0.503
17,CCC1(C)CC(c2csc(N)n2)CCO1 (stereo not drawn),-0.0369
18,COC(=O)c1cc(S(=O)(=O)NCC2CCN(Cc3ccc(C)cc3)C2)c[nH]1 (stereo not drawn),-2.3
19,COc1ccc(NC(=O)c2ccc(CN3CCOCC3)cc2)cc1OC,2.13
20,CC(C)(C)n1ncc(Cl)c(Cl)c1=O,0.166
21,Cc1nc(CSc2ncnc3scc(-c4ccccc4)c23)cs1,2.4
22,CC(C)C[C@H](NC(=O)c1cc(-c2ccccc2Cl)no1)C(=O)NCC#N,-6.98

row,SMILES,% Inhibition @ 10 uM [%]
1,COc1cc(C(=O)Nc2ccc(C(=O)NC(C)(C)C)cc2)cc(OC)c1OC,-4.39
2,CCOC(=O)N1CCN(C(=O)Cn2ncc3c4ccccc4n(C)c3c2=O)CC1,-1.92
3,COc1cccc(-c2nn(C)c(Cl)c2C=O)c1,1.91
4,CCc1ccc(C(C)NC(=O)c2cccs2)cc1 (stereo not drawn),-8.23
5,CCN(CC)CC(O)COc1ccc(C(C)(C)C)cc1 (stereo not drawn),1.35
6,COc1cc(NC(=O)c2sc3nc4c(cc3c2N)CCCCC4)cc(OC)c1OC,3.29
7,O=C(CSc1nc2c(c(=O)n1Cc1ccccc1)SCC2)NCc1ccc(F)cc1,6.3
8,Cc1cccc(N2CCN(C(=O)c3csc4ccccc34)CC2C)c1 (stereo not drawn),1.68
9,COc1ccccc1NC(=O)c1sc(Cl)nc1-c1ccccc1,1.83
10,CCOc1ccc(CCNC(=O)Cn2nc(CC)n3c(cc4sccc43)c2=O)cc1OCC,6.46
11,O=C(Cc1ccccc1)Nc1c(O)c2ccccc2oc1=O,-0.602
12,Cc1cccc(OCCCN2CCOCC2)c1C,-0.546
13,COC(=O)Nc1ccc(S(=O)(=O)N2CCC(C(=O)Nc3cccc(OC)c3)CC2)cc1,4.12
14,O=C(NCc1ccncc1)Nc1ccc(Cl)cc1,-0.67
15,CC(C)N(C(=O)Cc1c(O)nc2ccccc2c1O)C(C)C,4.99
16,COc1ccc(C2=NOC(C(=O)N3CCOCC3)C2)cc1 (stereo not drawn),7.66
17,Clc1ccccc1-c1nnc(-c2ccccc2)o1,-2.78
18,CCn1cc(Cl)c(C(=O)Nc2nc(-c3cc(OC)ccc3OC)cs2)n1,5.83
19,CC(C)CC(NC(=O)c1ccc(Br)c([N+](=O)[O-])c1)C(N)=O (stereo not drawn),-8.49
20,Cc1cc(C(=O)NC23CC4CC(CC(C4)C2)C3)c(C)o1,3.49
21,O=C(NCc1ccccc1)c1ccc(CS(=O)(=O)c2ccccc2)o1,-3.09
22,CCOc1cc(C(=O)NCc2ccco2)cc(OCC)c1OCC,1.63
